Test results published in a compilation of properties of binary mixtures (doi:10.1016/j.molliq.2017.02.011).
The densities may have been worked out from excess volumes.

Assay: xn = mol fraction of the nth substance listed
Conditions: 100 kPa

O=C1CCCCC1 + CCCC[n+]1ccn(C)c1C.F[B-](F)(F)F
x2 = 0
Conditions	mass density [kg/m3]
298.15 K	942.9
308.15 K	933.2

CCCC[n+]1ccn(C)c1C.F[B-](F)(F)F + O=C1CCCCC1
mass density [kg/m3]
Conditions	293.15 K	298.15 K	303.15 K	308.15 K
x1 = 0.0834	957.9	954.1	951.5	949.1
x1 = 0.1328	967.9	965.3	963.3	–
x1 = 0.1764	977.6	976.7	975.5	974.6
x1 = 0.2258	994.2	–	992.4	991.3
x1 = 0.2675	1009.7	1008.8	1007.6	1006.1
x1 = 0.3094	1026.1	–	1024.2	1023.3
x1 = 0.3824	1055.5	1054.3	–	1052
x1 = 0.4368	–	–	1075.6	1074.8
x1 = 0.4755	1092.4	1091.7	–	1090
x1 = 0.5276	1111.7	1110.9	1110	1109.2
x1 = 0.5649	1124.6	1123.8	1123	1122
x1 = 0.6063	1137.9	1137.1	1136.2	1135.7
x1 = 0.6451	1149.3	1148.5	–	1147.3
x1 = 0.6947	–	1161.6	1160.4	1159.6
x1 = 0.7419	1172.3	1171.8	1170.3	–
x1 = 0.7994	–	1181.4	–	–
x1 = 0.8527	1188.4	1187.7	1185.9	1185.1
x1 = 0.9134	1192.3	–	1188.9	–
x1 = 1	1193.5	1191.8	1189.7	–
